These results are taken from PMC12820563, “FoxP3 forms a head-to-head dimer in vivo and stabilizes its multimerization on adjacent microsatellites”.

Some of the results follow.

In the experiment the target is T1, MBP-FoxP1dN (Mus musculus, UniProt P58462 326-579).
T1 sequence: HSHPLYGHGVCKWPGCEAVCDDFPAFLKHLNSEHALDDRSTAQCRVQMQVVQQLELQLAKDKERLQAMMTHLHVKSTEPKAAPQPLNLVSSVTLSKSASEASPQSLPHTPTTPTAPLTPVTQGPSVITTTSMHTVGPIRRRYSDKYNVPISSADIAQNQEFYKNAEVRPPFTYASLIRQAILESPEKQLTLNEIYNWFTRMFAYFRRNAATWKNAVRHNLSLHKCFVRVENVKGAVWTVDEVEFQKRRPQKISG
Description: PD-seq (MBP pull-down with sequencing); 20 mM Tris-HCl pH 7.5, 100 mM NaCl, 1.5 mM MgCl2, 0.4 uM protein, 0.1 uM dsDNA library, 30 min, room temperature, amylose pull-down; high values mean tight binding. Conditions: protein: recombinant; tags: His6-MBP; chain copies: 2; dsDNA, one strand shown. The gist of the method: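 Binding is reads-per-million enrichment of pull-down over input, with replicates pooled. It comes from 30 min room-temperature incubation in Tris pH 7.5 buffer with NaCl and MgCl2 of 0.4 µM His6-MBP-tagged, N-terminally truncated mouse FoxP3 or FoxP1 fragment from E. coli with 0.1 µM Klenow-filled degenerate double-stranded DNA library, followed by amylose resin capture, three washes and Illumina sequencing of the released DNA.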
Regarding “GATGATTGTTCTCCCAGCTGATGAATTAACCGAGTCGAGTAAACAAATTTTCCTAATCTTTCTGTTCAAGCGCCATCTAC”, the binding signal was 0.791 RPM ratio (pull-down/input).

As for “GATGATTGTTCTCCCAGCTGATGAATTCACATATTCGAGTAAACAAATTTTCCTAATCTTTCTGTTCAAGCGCCATCTAC”, the binding signal was 0.914 RPM ratio (pull-down/input). Turning to “GATGATTGTTCTCCCAGCTGATGAATTAGCTTACTCGAGTAAACAAATTTTCCTAATCTTTCTGTTCAAGCGCCATCTAC”, the binding signal is 0.938 RPM ratio (pull-down/input).

Turning to “GATGATTGTTCTCCCAGCTGATGAATTCGATTGTTCGAGTAAACAAATTTTCCTAATCTTTCTGTTCAAGCGCCATCTAC”, the binding signal is 1.02 RPM ratio (pull-down/input). For “GATGATTGTTCTCCCAGCTGATGAATTGGGCACGTCGAGTAAACAAATTTTCCTAATCTTTCTGTTCAAGCGCCATCTAC” the value was 0.834 RPM ratio (pull-down/input). For “GATGATTGTTCTCCCAGCTGATGAATTGGAATTATCGAGTAAACAAATTTTCCTAATCTTTCTGTTCAAGCGCCATCTAC” the value was 0.944 RPM ratio (pull-down/input); for “GATGATTGTTCTCCCAGCTGATGAATTAGATCAATCGAGTAAACAAATTTTCCTAATCTTTCTGTTCAAGCGCCATCTAC”, 1.04 RPM ratio (pull-down/input); for “GATGATTGTTCTCCCAGCTGATGAATTGAGTATCTCGAGTAAACAAATTTTCCTAATCTTTCTGTTCAAGCGCCATCTAC”, 0.948 RPM ratio (pull-down/input). For “GATGATTGTTCTCCCAGCTGATGAATTGGCATAGTCGAGTAAACAAATTTTCCTAATCTTTCTGTTCAAGCGCCATCTAC” the value was 0.946 RPM ratio (pull-down/input); for “GATGATTGTTCTCCCAGCTGATGAATTAGCTCTCTCGAGTAAACAAATTTTCCTAATCTTTCTGTTCAAGCGCCATCTAC”, 0.816 RPM ratio (pull-down/input). On to “GATGATTGTTCTCCCAGCTGATGAATTTCACAGGTCGAGTAAACAAATTTTCCTAATCTTTCTGTTCAAGCGCCATCTAC”, for which the binding signal was 0.774 RPM ratio (pull-down/input). For “GATGATTGTTCTCCCAGCTGATGAATTGAACCTCTCGAGTAAACAAATTTTCCTAATCTTTCTGTTCAAGCGCCATCTAC” the value was 0.836 RPM ratio (pull-down/input). For “GATGATTGTTCTCCCAGCTGATGAATTTCGCGACTCGAGTAAACAAATTTTCCTAATCTTTCTGTTCAAGCGCCATCTAC” the value was 0.864 RPM ratio (pull-down/input); for “GATGATTGTTCTCCCAGCTGATGAATTAGGGGGTTCGAGTAAACAAATTTTCCTAATCTTTCTGTTCAAGCGCCATCTAC”, 0.91 RPM ratio (pull-down/input); for “GATGATTGTTCTCCCAGCTGATGAATTACTTGGATCGAGTAAACAAATTTTCCTAATCTTTCTGTTCAAGCGCCATCTAC”, 0.979 RPM ratio (pull-down/input).

For the sequence “GATGATTGTTCTCCCAGCTGATGAATTCGAAATTTCGAGTAAACAAATTTTCCTAATCTTTCTGTTCAAGCGCCATCTAC”, the binding signal is 0.896 RPM ratio (pull-down/input).

As to “GATGATTGTTCTCCCAGCTGATGAATTTCTTACCTCGAGTAAACAAATTTTCCTAATCTTTCTGTTCAAGCGCCATCTAC”, the binding signal was 0.888 RPM ratio (pull-down/input). For “GATGATTGTTCTCCCAGCTGATGAATTTGGGGTCTCGAGTAAACAAATTTTCCTAATCTTTCTGTTCAAGCGCCATCTAC” the value was 0.838 RPM ratio (pull-down/input); for “GATGATTGTTCTCCCAGCTGATGAATTATCGTTATCGAGTAAACAAATTTTCCTAATCTTTCTGTTCAAGCGCCATCTAC”, 1.11 RPM ratio (pull-down/input); for “GATGATTGTTCTCCCAGCTGATGAATTTGGTGCGTCGAGTAAACAAATTTTCCTAATCTTTCTGTTCAAGCGCCATCTAC”, 1.04 RPM ratio (pull-down/input).

Take “GATGATTGTTCTCCCAGCTGATGAATTTGAGTCCTCGAGTAAACAAATTTTCCTAATCTTTCTGTTCAAGCGCCATCTAC”: the binding signal was 0.74 RPM ratio (pull-down/input). For “GATGATTGTTCTCCCAGCTGATGAATTCTATGTGTCGAGTAAACAAATTTTCCTAATCTTTCTGTTCAAGCGCCATCTAC” the value was 1.03 RPM ratio (pull-down/input). For “GATGATTGTTCTCCCAGCTGATGAATTCGCAGGTTCGAGTAAACAAATTTTCCTAATCTTTCTGTTCAAGCGCCATCTAC” the value was 0.782 RPM ratio (pull-down/input). For “GATGATTGTTCTCCCAGCTGATGAATTAGTATTCTCGAGTAAACAAATTTTCCTAATCTTTCTGTTCAAGCGCCATCTAC” the value was 0.982 RPM ratio (pull-down/input). For “GATGATTGTTCTCCCAGCTGATGAATTACAGATTTCGAGTAAACAAATTTTCCTAATCTTTCTGTTCAAGCGCCATCTAC”, the binding signal is 1.19 RPM ratio (pull-down/input). Regarding “GATGATTGTTCTCCCAGCTGATGAATTGATGTCTTCGAGTAAACAAATTTTCCTAATCTTTCTGTTCAAGCGCCATCTAC”, the binding signal was 1.16 RPM ratio (pull-down/input).

Take “GATGATTGTTCTCCCAGCTGATGAATTCGCAACCTCGAGTAAACAAATTTTCCTAATCTTTCTGTTCAAGCGCCATCTAC”: the binding signal is 0.943 RPM ratio (pull-down/input). For “GATGATTGTTCTCCCAGCTGATGAATTTGGGGTGTCGAGTAAACAAATTTTCCTAATCTTTCTGTTCAAGCGCCATCTAC” the value was 0.832 RPM ratio (pull-down/input); for “GATGATTGTTCTCCCAGCTGATGAATTGATGGTCTCGAGTAAACAAATTTTCCTAATCTTTCTGTTCAAGCGCCATCTAC”, 0.887 RPM ratio (pull-down/input); for “GATGATTGTTCTCCCAGCTGATGAATTCCTGGTTTCGAGTAAACAAATTTTCCTAATCTTTCTGTTCAAGCGCCATCTAC”, 0.868 RPM ratio (pull-down/input). For “GATGATTGTTCTCCCAGCTGATGAATTCGGCTAGTCGAGTAAACAAATTTTCCTAATCTTTCTGTTCAAGCGCCATCTAC” the value was 0.802 RPM ratio (pull-down/input); for “GATGATTGTTCTCCCAGCTGATGAATTACTTGAGTCGAGTAAACAAATTTTCCTAATCTTTCTGTTCAAGCGCCATCTAC”, 0.986 RPM ratio (pull-down/input).
